Source: the supplement of paper PMC10338343
± gives the standard deviation. The full ranking holds about 6,600 sequences; the median of “pre-steady-state target cleavage rate” is about 0.07, and the highest 2% start at about 0.72. The list shows a part of the results, in another mix than the full data.

system: MIWI (PIWIL1) piRISC loaded with Kctd7 piRNA (30 nt); assay: pre-steady-state target cleavage rate (min^-1); MIWI and MILI are mouse PIWI proteins and EfPiwi is from a freshwater sponge; tags in brackets are library labels; higher = faster piRNA-guided slicing of the target; conditions: guide: Kctd7 piRNA 5'p-UGUUAAUCUCUCAGAGAAGGUGACAGUGAU; auxiliary factor: 500 nM mouse GTSF1
Outline: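 Using HEPES–potassium acetate buffer at 33 °C, 1 nM active affinity-purified piRISC with a single synthetic guide was mixed with 0.1 nM transcribed, DNA-blocked target RNA library for 0–8 or 0–960 min, with or without 500 nM GTSF1 partner protein. Uncleaved targets were sequenced and normalised to depth and to weakly complementary targets, and three trials were pooled with k3 capped at 0.0001 min^-1. A burst-and-steady-state fit gave the pre-steady-state cleavage rate.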

Sequence | pre-steady-state target cleavage rate
UACACAGACACCUUCUCUGAGAGAUUAACA | 0.43 ± 0.028
UAGUGUGUCAGGUUCUCUGAGAGAUUAAGA | 0.0319 ± 0.0051
UAGUGAGUCACCUUCUCUGAGACAUUAUGA | 0.00655 ± 0.0036
UAGAGUGUCACCUUCUCUGAGACAUUAACA | 0.196 ± 0.02
UAGUGACAGACCUUCUCUGAGAGAUUCAACA | 0.103 ± 0.026
UACACUGUCAGCUUCACUGAGAGAUUAACA | 0.454 ± 0.027
UUCACUGUCACCUACUCUGUGAGAUUAACA | 0.177 ± 0.013
UACACACUCACCUUCUCUGAGAGAUUAUGA | 0.0563 ± 0.017
UUCACUCUCACCUUCUCUGAGAGAUAAACA | 0.137 ± 0.021
UACACUGUCACCUUCUCUGAGAGAUCUAACA | 0.415 ± 0.073
UAGUGUGUCACCUACUCAGAGAGAUUAACA | 0.122 ± 0.0095
AUCACUGUCACCUACUCUGAGAGAUUAAGA | 0.228 ± 0.037
UAGUGACAGUCCUUCUCUGUGAGUUUAACA | 0.00604 ± 0.002
UAGUGUGUCACCUUCUCUGAGAGAAAUUGA [g7:g25:cont:t1A] | 0.0437 ± 0.017
UAGUGUGUCACCAUCUCUGAGAGAAUAACA | 0.213 ± 0.039
UACACUGAGACCUUCUCUGAGAGAUUAACA | 0.572 ± 0.034
UAGUCUGUCACCUUCUCUGAGAGAUUCAACA | 0.432 ± 0.07
UAGAGUGUCUCCUUCUCUGAGAGAUUAACA | 0.667 ± 0.035
UAGUGACACACCUUCUCAGAGACAUUAACA | 0.0297 ± 0.0067
UACACUGUCACCUACUCUGACAGAUUAACA | 0.219 ± 0.021
UAGUGACUCACCUACUCUGAGAGAUUAUGA | 0.00463 ± 0.003
UAGUGACAGUGCUUCUCUGAGAGAUUUACA | 0.00717 ± 0.002
UAGUGAGUCACCUGCUCUGAGAGAUUAACA | 0.525 ± 0.025
UAGUGACACACCUUCUCUGACAGAUUAAGA | 0.00356 ± 0.003
UACACUGUCACCGUCUCUGAGAGAUUAACA | 0.513 ± 0.039
UACACUGUCACCUUCUCUGAGAGAUUAAA | 0.235 ± 0.036
UAGUGUGAGACCUUCUCUGAGAGAUUAUGA | 0.0142 ± 0.0052

Sequence | pre-steady-state target cleavage rate
UAGUCUGUCACCAUCUCUCAGAGAUUAACA | 0.0544 ± 0.0077
AUCACUGUCACCUUCACUGACAGAUUAACA | 0.295 ± 0.036
UAGACUGUCACCUUGUCUGAGAGAUUAUGA | 0.22 ± 0.046
UUCACUGUCACCUUAUCUGAGAGAUUAACA | 0.573 ± 0.024
UAGUCUGACACCUUCUCUGAGAGAUUUACA | 0.308 ± 0.04
UAGACUGUCUGCUUCUCUGAGAGAUUAUGA | 0.0109 ± 0.003
UUCACUGAGACCUUCUCUGAGAGAUUAACA | 0.54 ± 0.022
UAGUGACAGACCUUCUCUGAGAGAAUUAACA | 0.025 ± 0.006
UACAGUGUCACCUUCUCUGACAGAUUAACA | 0.467 ± 0.025
UAGUGACAGUGCUUGCUCUGAGAGAUUAACA | 0.0123 ± 0.0022
UAGUGUGUCACCUUCUGUGUGAGAUUAACA | 0.0844 ± 0.0075
UAGUGACACACCAUCUCUGAGAGAUAAACA | 0.0901 ± 0.014
UAGUGAGUCACCUUCUGAGAGAGAUUAAGA | 0.0137 ± 0.0058
UAGACUAGUCACCUUCUCUGAGAGAUUAACA | 0.756 ± 0.049
UUCACUGUCAUCCUUCUCUGAGAGAUUAACA | 0.287 ± 0.016
AUCUCUGUCACCUUCUCUGAGAGAUAAACA | 0.244 ± 0.028
UAGACUGUCUCCUUCUCUGAGAGAAUAACA | 0.455 ± 0.088
UAGUCUGUCACCUACUCUGAGAGAUAAACA | 0.299 ± 0.041
UAGUGACAGUGGAUCUCUGAGAGAUUCAACA | < 0.0001
UAGUGUGUCACCUUGUCAGAGAGAUUAACA | 0.0856 ± 0.0095
UAGUGACACACCUUCUCUGAGAGAUUAAAA | 0.169 ± 0.029
UAGACUGUCACCUUCACUGAGAGAUUAUGA | 0.248 ± 0.049
UAGUGAGUCACGUUCUCUGAGACAUUAACA | 0.0472 ± 0.0078
UAGUGUGUCACCUUCUCUGAGAGAUUAAA | 0.259 ± 0.04
UAGUGAGUCACCUUCGCUGAGAGAUUAACA | 0.282 ± 0.035
UAGUGAGUCUCCUACUCUGAGAGAUUAACA | 0.241 ± 0.02
